From PubChem BioAssay AID485344 (National Center for Advancing Translational Sciences (NCATS), 2010)
Screen size: about 340,000 compounds; about 6,900 (2%) were called active. Rule as the data show it: active = inhibition above about 30%; inactive = below that, where a call was filed. This is a selection; strong and weak results do not stand in their true shares. Entries without a call were filed so in the source.

Biological target: D(2) dopamine receptor (Homo sapiens) (UniProt P14416)
Experiment: HTS Assay for Allosteric Antagonists of the Human D2 Dopamine Receptor: Primary Screen for Antagonists; also: 0% is about no effect
Settings: HEK293 TREx D2 cells, calcium flux, dopamine EC80; at 10 µM; stronger effect = higher value
In short: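 Dopamine at EC80 is the agonist stimulus; test compounds precede it by 180 s. Calcium flux read kinetically in a force-coupled, inducible HEK293 T-REx D2 cell line.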

UniProt P14416, sequence (P14416 whole entry, looked up): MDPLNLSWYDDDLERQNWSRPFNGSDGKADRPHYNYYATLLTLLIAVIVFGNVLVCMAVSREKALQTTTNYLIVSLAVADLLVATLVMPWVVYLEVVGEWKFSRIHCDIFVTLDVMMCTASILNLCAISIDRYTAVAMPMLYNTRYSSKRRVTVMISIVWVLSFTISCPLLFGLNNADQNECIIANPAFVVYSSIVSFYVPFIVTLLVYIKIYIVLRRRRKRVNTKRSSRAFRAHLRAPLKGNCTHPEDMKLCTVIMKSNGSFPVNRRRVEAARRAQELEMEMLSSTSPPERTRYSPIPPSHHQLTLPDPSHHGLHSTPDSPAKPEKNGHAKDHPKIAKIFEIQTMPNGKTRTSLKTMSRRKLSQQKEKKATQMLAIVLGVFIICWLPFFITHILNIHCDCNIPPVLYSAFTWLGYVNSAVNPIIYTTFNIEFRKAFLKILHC

Structure (SMILES) | inhibition
O=C(CCN1CCN(c2ccccc2)CC1)NNC(=O)Cc1ccc(Br)cc1 | active: 70.4%
O=C(CCNC(=O)N1CC(=O)Nc2ccccc21)Nc1ccc(Br)cc1F | active: 55.4%
Cc1cccc(N2CCN(Cc3nnc(-c4ccccc4C)o3)CC2C)c1 (stereo unspecified) | -10.5%
Cc1ccc(Cn2c(CNC(=O)CCc3ccccc3)nc3cccnc32)cc1 | 4.76%
COc1ccc(C2=Nc3ccc(F)cc3NC(c3cccc(C(F)(F)F)c3)=N2)cc1 | 7.4%
CCCOc1ccc(C(=O)N(Cc2ccccc2Cl)C2CCS(=O)(=O)C2)cc1 (stereo unspecified) | 1.64%
COC(=O)c1ccccc1NC(=O)c1cnc(Nc2ccc(OC)cc2)c2ccccc12 | 7.06%
CCOc1cc(Br)cc(C2NC(=O)c3c(sc4c3CCN(C)C4)N2)c1O (stereo unspecified) | -15.8%
COc1ccc(CNC(=O)CSc2ncc3c(n2)-c2ccc(Cl)cc2N(Cc2ccc(F)cc2)S3(=O)=O)cc1OC | 2.46%
COCCCNC(=O)CCCn1c(SCC(=O)c2ccc(F)cc2)nc2c(sc3ccccc32)c1=O | 6.04%
COc1ccc(-n2cnc3cc(C(=O)NC4CCCC4)ccc32)cc1 | -2.27%
COc1ccc(Cn2c(C(=O)O)c(CNCc3ccco3)c3ccc(OC)cc32)cc1 | 7.02%
O=C(CSc1c2c(nc3ccccc13)CCC2)Nc1ccc(F)cc1 | -4.28%
CC(C)(C)c1ccc(C(=O)NCC(c2ccco2)S(=O)(=O)c2ccc(F)cc2)cc1 (stereo unspecified) | -23.6%
CN(C)c1ccc(CNC(=O)c2ccc(Cn3c(=O)c4cccn4c4cccnc43)cc2)cc1 | -6.88%
Cc1ccc(C(=O)N(Cc2sccc2C)C2CCS(=O)(=O)C2)cc1 (stereo unspecified) | 1.87%
Cc1nc(C)c(-c2ccc(SCC(=O)Nc3ccc(Cl)c(Cl)c3)nn2)s1 | 23.4%
COc1ccc(OC)c(-n2nnc3c(sc4nc(C)c(Br)c(C)c43)c2=O)c1 | 3.23%
COc1ccccc1NC(=O)N1c2ccccc2Sc2ccccc21 | -7.67%
CCOc1ccc(C(=O)Nc2cc(NC(=O)c3ccco3)ccc2OC)cc1Br | -10.3%
Cc1ccc(CCNC(=O)CCN2N=C(c3ccc(C)cc3)CCC2=O)cc1 | 19.9%

Structure (SMILES) | inhibition
COc1ccc(-c2nc3cc(NC(=O)Cc4ccc(Cl)cc4)ccc3o2)cc1OC | 6.45%
COc1ccc(CCC(=O)NCc2ccc3c(c2)CCN3C(=O)c2ccc(F)cc2)cc1 | -3.85%
Cc1ccsc1CCN1C(=O)N(c2ccccc2)C(=O)C1CC(=O)Nc1ccc(F)cc1 (stereo unspecified) | -18.7%
Cc1ccc(Cl)cc1Nc1nc2ccccc2c2nncn12 | 6.52%
Cc1cccc(C)c1NC(=O)c1ccc2c(c1)N(Cc1cccc(Cl)c1)C(=O)c1ccccc1S2=O (stereo unspecified) | -13.5%
CCOC(=O)c1ccc(NC(=O)Cn2nc(SC)c(S(=O)(=O)c3ccc(Cl)cc3)c2N)cc1 | -4.73%
CC(C)CC(=O)Nc1nnc(S(=O)(=O)N2CCCCCC2)s1 | -6.34%
CC(=O)N1CCC2(CC1)OC(=O)C(C)=C2C(=O)Nc1cccc(Cl)c1C | -5.98%
Cc1cccc(C(=O)Nc2cc3c(cc2N2CCCCC2)n(C)c(=O)c(=O)n3C)c1 | -1.86%
CCCCC(=O)Nc1cc(C)c(O)c(-c2nc3ncccc3o2)c1 | 7.78%
O=C(CC1N=C2c3ccccc3N=C(SCc3ccccc3F)N2C1=O)NCCc1ccccc1 (stereo unspecified) | -15.9%
CC1=C(C(=O)Nc2ccccc2)C(c2cccnc2)n2nc(SCc3ccccc3F)nc2N1 (stereo unspecified) | 2.29%
O=c1c2sc3ccccc3c2n(Cc2ccccc2F)c(=O)n1Cc1ccccc1 | 16.4%
COc1ccc(Cl)cc1NC(=O)c1cc(C)nc2c1c(C)nn2-c1ccccc1 | 10.7%
COc1cccc(CNC(=O)C2CCN(C(=O)N3CCOc4ccc(Cl)cc43)CC2)c1OC | 5.46%
Cc1ccc(Cn2c(=O)n(Cc3ccco3)c(=O)c3sc4ccccc4c32)cc1 | -3.62%
Cc1nc2c(C(=O)NCc3ccccc3)cnn2c(C)c1Cc1ccc(F)cc1 | -11.9%
O=c1c2cnn(-c3ccc(Cl)cc3)c2ncn1Cc1ccc(Cl)cc1Cl | -1.9%
CN1CCc2c(sc(/N=C/c3cc(C(C)(C)C)ccc3O)c2C#N)C1 | active: 89.5%
Cc1ccc(-n2nc(C(=O)N3CCN(c4cccc(C(F)(F)F)c4)CC3)c(=O)n(C)c2=O)cc1 | 0.382%
Cc1ccc(CNc2ccc(-c3nc(C(C)C)no3)cc2[N+](=O)[O-])cc1 | 15.6%

Structure (SMILES) | inhibition
Cc1oc2ccc(O)c(CN3CCOCC3)c2c1C(=O)Nc1ccccc1 | -3.41%
COc1cc(NC(=O)CN2C(=O)C(c3ccc(C)cc3)=NC23CCCCC3)cc(OC)c1 | 5%
Cc1ccc(-n2c(=O)c3c(c4cc(C)ccc4n3C)n(CC(=O)Nc3c(C)cccc3C)c2=O)cc1 | -0.401%
O=C(CCSCCc1ccccn1)Nc1cc(F)ccc1F | 4.55%
CC(NC(=O)c1ccc2c(c1)N(Cc1cccc(F)c1)C(=O)c1ccccc1S2)c1ccccc1 (stereo unspecified) | 14.2%
CCCCN(C)CCNC(=O)c1c(C)oc2ncnc(N3CCOCC3)c12 | 3.11%
Cc1cccc(NC(=O)Cn2c(=O)n(CCC(C)C)c(=O)c3cccnc32)c1 | -10.1%
Cc1ccc(NC(=O)c2cnn(-c3ccc(C)c(C)c3)c2C2CCN(C(=O)OC(C)(C)C)CC2)c(C)c1 | -6.14%
COc1ccc(CNS(=O)(=O)c2cc3c(cc2C)n(C)c(=O)c(=O)n3C)cc1 | 4.56%
Cc1cc(C)c2nc(N3CCCC(C(=O)NCc4cccc(Cl)c4)C3)sc2c1 (stereo unspecified) | 12.4%
COc1cccc(NC(=O)c2nn(-c3ccc(C)cc3)c(=O)n(C)c2=O)c1 | 23.5%
CC(C)CN(CC(C)C)C(=O)C1CCCN(S(=O)(=O)c2ccc3c(c2)oc(=O)n3C)C1 (stereo unspecified) | 6.15%
COc1ccc(CCNC(=O)c2[nH]c(C)c(C(C)=O)c2C)cc1OC | active: 37.7%
CCc1ccc(CNC(=O)c2ccc3nc(SCc4ccc(F)cc4)n(C)c3c2)cc1 | 7.96%
Cc1ccc(NS(=O)(=O)c2ccc3c(c2)NC(=O)C(C)C(=O)N3)cc1F (stereo unspecified) | 25.5%
COc1ccccc1/C=C/CN1CCC(n2nccc2NC(=O)CCc2ccccc2)CC1 | active: 35.3%
Fc1ccc(/C=N/n2c(C3CCCCC3)n[nH]c2=S)cc1 | active: 50.2%
Cc1cccc(N2CCN(C(=O)c3cc4c(=O)oc5ccccc5c4s3)CC2C)c1 (stereo unspecified) | 5.84%
CCN1C(=O)c2ccccc2Sc2ccc(NC(=O)COc3ccc(Cl)cc3)cc21 | 5.59%
